# The supplement of paper PMC8728848
# The other results are listed elsewhere or left out.
# B1: CAA (Caragana arborescens) (protein)
# chain: VAVEFDTFDNPDWDPRTKHIGIDVNSIRSNKTTQWGFWNRQVADVDISYEASSKTLNVSLYYPGESYIVTDVVDLKDILPEWVRIGF
# Tests used:
# Test in all cases: glycan array binding signal (z-score within array); higher = stronger binding
# Conditions in all cases: glycan notation: IUPAC condensed, linker removed
# [1] = target: Gal(b1-4)GlcNAc(b1-2)[Gal(b1-4)GlcNAc(b1-6)]Man(a1-6)[Gal(b1-4)GlcNAc(b1-2)Man(a1-3)]Man(b1-4)GlcNAc(b1-4)[Fuc(a1-6)]GlcNAc
# In short: (§1)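 Arrays were curated from the Consortium for Functional Glycomics database, 3228 in total, and kept only where the protein sequence was available. Binding is expressed as a within-array Z-score. This score was averaged across arrays of the same protein sequence at different concentrations or buffers and across linkers, and negative values can be read as non-binding.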
# [2] = target: Gal(b1-4)GlcNAc(b1-2)[Gal(b1-4)GlcNAc(b1-6)]Man(a1-6)[GlcNAc(b1-4)][Gal(b1-4)GlcNAc(b1-2)Man(a1-3)]Man(b1-4)GlcNAc(b1-4)GlcNAc
# In short: as §1
# [3] = target: Gal(b1-4)GlcNAc(b1-2)[Gal(b1-4)GlcNAc(b1-6)]Man(a1-6)[GlcNAc(b1-4)][Gal(b1-4)GlcNAc(b1-2)[Gal(b1-4)GlcNAc(b1-4)]Man(a1-3)]Man(b1-4)GlcNAc(b1-4)[Fuc(a1-6)]GlcNAc
# In short: as §1
# [4] = target: Gal(b1-4)GlcNAc(b1-3)Gal(b1-3)GalNAc
# In short: as §1
# [5] = target: Gal(b1-4)GlcNAc(b1-3)Gal(b1-3)GlcNAc
# In short: as §1
# [6] = target: Gal(b1-4)GlcNAc(b1-3)Gal(b1-4)Glc
# In short: as §1
# [7] = target: Gal(b1-4)GlcNAc(b1-3)Gal(b1-4)GlcNAc
# In short: as §1
# [8] = target: Gal(b1-4)GlcNAc(b1-3)Gal(b1-4)GlcNAc(b1-2)Man(a1-3)[Gal(b1-4)GlcNAc(b1-3)Gal(b1-4)GlcNAc(b1-2)Man(a1-6)]Man(b1-4)GlcNAc(b1-4)GlcNAc
# In short: as §1
# [9] = target: Gal(b1-4)GlcNAc(b1-3)Gal(b1-4)GlcNAc(b1-2)Man(a1-3)[Gal(b1-4)GlcNAc(b1-3)Gal(b1-4)GlcNAc(b1-2)Man(a1-6)]Man(b1-4)GlcNAc(b1-4)[Fuc(a1-6)]GlcNAc
# In short: as §1
# [10] = target: Gal(b1-4)GlcNAc(b1-3)Gal(b1-4)GlcNAc(b1-2)[Gal(b1-4)GlcNAc(b1-3)Gal(b1-4)GlcNAc(b1-6)]Man(a1-6)[Gal(b1-4)GlcNAc(b1-3)Gal(b1-4)GlcNAc(b1-2)Man(a1-3)]Man(b1-4)GlcNAc(b1-4)GlcNAc
# In short: as §1
# [11] = target: Gal(b1-4)GlcNAc(b1-3)Gal(b1-4)GlcNAc(b1-2)[Gal(b1-4)GlcNAc(b1-3)Gal(b1-4)GlcNAc(b1-6)]Man(a1-6)[Gal(b1-4)GlcNAc(b1-3)Gal(b1-4)GlcNAc(b1-2)Man(a1-3)]Man(b1-4)GlcNAc(b1-4)[Fuc(a1-6)]GlcNAc
# In short: as §1
# [12] = target: Gal(b1-4)GlcNAc(b1-3)Gal(b1-4)GlcNAc(b1-3)Gal(b1-4)GlcNAc
# In short: as §1
# [13] = target: Gal(b1-4)GlcNAc(b1-3)Gal(b1-4)GlcNAc(b1-3)Gal(b1-4)GlcNAc(b1-2)Man(a1-3)[Gal(b1-4)GlcNAc(b1-3)Gal(b1-4)GlcNAc(b1-3)Gal(b1-4)GlcNAc(b1-2)Man(a1-6)]Man(b1-4)GlcNAc(b1-4)GlcNAc
# In short: as §1
# [14] = target: Gal(b1-4)GlcNAc(b1-3)Gal(b1-4)GlcNAc(b1-3)Gal(b1-4)GlcNAc(b1-2)Man(a1-3)[Gal(b1-4)GlcNAc(b1-3)Gal(b1-4)GlcNAc(b1-3)Gal(b1-4)GlcNAc(b1-2)Man(a1-6)]Man(b1-4)GlcNAc(b1-4)[Fuc(a1-6)]GlcNAc
# In short: as §1
# [15] = target: Gal(b1-4)GlcNAc(b1-3)Gal(b1-4)GlcNAc(b1-3)Gal(b1-4)GlcNAc(b1-2)[Gal(b1-4)GlcNAc(b1-3)Gal(b1-4)GlcNAc(b1-3)Gal(b1-4)GlcNAc(b1-6)]Man(a1-6)[Gal(b1-4)GlcNAc(b1-3)Gal(b1-4)GlcNAc(b1-3)Gal(b1-4)GlcNAc(b1-2)Man(a1-3)]Man(b1-4)GlcNAc(b1-4)[Fuc(a1-6)]GlcNAc
# In short: as §1
# [16] = target: Gal(b1-4)GlcNAc(b1-3)Gal(b1-4)GlcNAc(b1-3)Gal(b1-4)GlcNAc(b1-3)Gal(b1-4)GlcNAc(b1-2)Man(a1-3)[Gal(b1-4)GlcNAc(b1-3)Gal(b1-4)GlcNAc(b1-3)Gal(b1-4)GlcNAc(b1-3)Gal(b1-4)GlcNAc(b1-2)Man(a1-6)]Man(b1-4)GlcNAc(b1-4)GlcNAc
# In short: as §1
# [17] = target: Gal(b1-4)GlcNAc(b1-3)Gal(b1-4)GlcNAc(b1-3)Gal(b1-4)GlcNAc(b1-3)Gal(b1-4)GlcNAc(b1-2)Man(a1-3)[Gal(b1-4)GlcNAc(b1-3)Gal(b1-4)GlcNAc(b1-3)Gal(b1-4)GlcNAc(b1-3)Gal(b1-4)GlcNAc(b1-2)Man(a1-6)]Man(b1-4)GlcNAc(b1-4)[Fuc(a1-6)]GlcNAc
# In short: as §1
# [18] = target: Gal(b1-4)GlcNAc(b1-3)Gal(b1-4)GlcNAc(b1-3)Gal(b1-4)GlcNAc(b1-3)Gal(b1-4)GlcNAc(b1-2)[Gal(b1-4)GlcNAc(b1-3)Gal(b1-4)GlcNAc(b1-3)Gal(b1-4)GlcNAc(b1-3)Gal(b1-4)GlcNAc(b1-6)]Man(a1-6)[Gal(b1-4)GlcNAc(b1-3)Gal(b1-4)GlcNAc(b1-3)Gal(b1-4)GlcNAc(b1-3)Gal(b1-4)GlcNAc(b1-2)Man(a1-3)]Man(b1-4)GlcNAc(b1-4)[Fuc(a1-6)]GlcNAc
# In short: as §1
# [19] = target: Gal(b1-4)GlcNAc(b1-3)Gal(b1-4)GlcNAc(b1-3)Gal(b1-4)GlcNAc(b1-3)Gal(b1-4)GlcNAc(b1-3)Gal(b1-4)GlcNAc(b1-2)Man(a1-3)[Gal(b1-4)GlcNAc(b1-3)Gal(b1-4)GlcNAc(b1-3)Gal(b1-4)GlcNAc(b1-3)Gal(b1-4)GlcNAc(b1-3)Gal(b1-4)GlcNAc(b1-2)Man(a1-6)]Man(b1-4)GlcNAc(b1-4)GlcNAc
# In short: as §1
# [20] = target: Gal(b1-4)GlcNAc(b1-3)Gal(b1-4)GlcNAc(b1-3)Gal(b1-4)GlcNAc(b1-3)Gal(b1-4)GlcNAc(b1-3)Gal(b1-4)GlcNAc(b1-2)Man(a1-3)[Gal(b1-4)GlcNAc(b1-3)Gal(b1-4)GlcNAc(b1-3)Gal(b1-4)GlcNAc(b1-3)Gal(b1-4)GlcNAc(b1-3)Gal(b1-4)GlcNAc(b1-2)Man(a1-6)]Man(b1-4)GlcNAc(b1-4)[Fuc(a1-6)]GlcNAc
# In short: as §1
# [21] = target: Gal(b1-4)GlcNAc(b1-3)Gal(b1-4)GlcNAc(b1-3)Gal(b1-4)GlcNAc(b1-3)Gal(b1-4)GlcNAc(b1-3)Gal(b1-4)GlcNAc(b1-2)[Gal(b1-4)GlcNAc(b1-3)Gal(b1-4)GlcNAc(b1-3)Gal(b1-4)GlcNAc(b1-3)Gal(b1-4)GlcNAc(b1-3)Gal(b1-4)GlcNAc(b1-6)]Man(a1-6)[Gal(b1-4)GlcNAc(b1-3)Gal(b1-4)GlcNAc(b1-3)Gal(b1-4)GlcNAc(b1-3)Gal(b1-4)GlcNAc(b1-3)Gal(b1-4)GlcNAc(b1-2)Man(a1-3)]Man(b1-4)GlcNAc(b1-4)[Fuc(a1-6)]GlcNAc
# In short: as §1
# [22] = target: Gal(b1-4)GlcNAc(b1-3)Gal(b1-4)GlcNAc(b1-3)Gal(b1-4)GlcNAc(b1-3)Gal(b1-4)GlcNAc(b1-3)Gal(b1-4)GlcNAc(b1-3)Gal(b1-4)GlcNAc(b1-2)Man(a1-3)[Gal(b1-4)GlcNAc(b1-3)Gal(b1-4)GlcNAc(b1-3)Gal(b1-4)GlcNAc(b1-3)Gal(b1-4)GlcNAc(b1-3)Gal(b1-4)GlcNAc(b1-3)Gal(b1-4)GlcNAc(b1-2)Man(a1-6)]Man(b1-4)GlcNAc(b1-4)GlcNAc
# In short: as §1
# [23] = target: Gal(b1-4)GlcNAc(b1-3)Gal(b1-4)GlcNAc(b1-3)GalNAc
# In short: as §1
binder,measurement,setting,value
B1,glycan array binding signal (z-score),[1],0.097
same,glycan array binding signal (z-score),[2],-0.25
same,glycan array binding signal (z-score),[3],-0.245
same,glycan array binding signal (z-score),[4],-0.248
same,glycan array binding signal (z-score),[5],-0.232
same,glycan array binding signal (z-score),[6],-0.232
same,glycan array binding signal (z-score),[7],-0.243
same,glycan array binding signal (z-score),[8],-0.137
same,glycan array binding signal (z-score),[9],-0.199
same,glycan array binding signal (z-score),[10],-0.243
same,glycan array binding signal (z-score),[11],-0.242
same,glycan array binding signal (z-score),[12],-0.25
same,glycan array binding signal (z-score),[13],-0.165
same,glycan array binding signal (z-score),[14],-0.233
same,glycan array binding signal (z-score),[15],-0.245
same,glycan array binding signal (z-score),[16],-0.244
same,glycan array binding signal (z-score),[17],-0.224
same,glycan array binding signal (z-score),[18],-0.239
same,glycan array binding signal (z-score),[19],-0.237
same,glycan array binding signal (z-score),[20],-0.246
same,glycan array binding signal (z-score),[21],-0.25
same,glycan array binding signal (z-score),[22],-0.25
same,glycan array binding signal (z-score),[23],-0.201
